# In all, about 420,000 compounds went through this assay and about 50,000 (12%) were called active. The shares of active, inactive and inconclusive entries below differ from those in the screen. Calls come from the whole dose curve; as a rule, active = well fitted inhibition curve with a large enough effect; inconclusive = small, poorly fitted or top-dose-only effect; inactive = flat fitted curve, though single readings scatter. No potency is given beside an inconclusive call; the fits are too rough.
# Assay: qHTS for Inhibitors of human tyrosyl-DNA phosphodiesterase 1 (TDP1): qHTS in cells in presence of CPT; note: nearly all actives have a fitted effect of over 55% in size
# Details: chicken DT40 Tdp1-/-;hTDP1 cells + 20 nM CPT, ATP luminescence, 48 h; activity change, negative = growth inhibition: at 46.2 µM (top of the series)
# How it was run: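 Chicken DT40 Tdp1-/- cells stably complemented with human TDP1 were seeded at 400 cells/well in medium containing 20 nM camptothecin, exposed to pin-transferred compounds, and grown at 37 °C for at least 48 hr. Viability was read as ATP luminescence.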
# % is set by controls: 0 for no effect and ±100 for the full control effect; potency is the fitted concentration of half-maximal effect; tags give direction and shape of the fitted curve.
SMILES,Potency,"activity change, negative = growth inhibition"
CC(C)CCNc1nc(Nc2ccccc2)c2cnn(C)c2n1,active: 23.1 µM,
Cc1ccc(NC(=O)c2cc3c(s2)CCCC3)cc1S(=O)(=O)Nc1ccccc1Cl,active: 16.4 µM,
CC(Cn1cnc2ccccc21)C(=O)O (configuration not stated),,inactive: -9.63%
CC(C)C(=O)Nc1c(C(=O)N2CCN(c3ncccn3)CC2)oc2ccccc12,,inactive: -22.8%
COc1ccc(-n2ncc3c(N4CCN(c5cc(C)ccc5C)CC4)ncnc32)cc1,,inactive: -0.438%
Cc1ccc(C)c(NC(=O)CSc2nnc(-c3ccncc3)n2N)c1,,inactive: -10.7%
Cc1cc(F)ccc1Nc1nc2ccc(Cl)cc2n2cnnc12,,inactive: 10.5%
Cc1cc(Nc2ccc([N+](=O)[O-])cc2)c2ccccc2n1,active: 16.4 µM,
Cc1ccc(-c2cn3c(=O)cc(C)[nH]c3n2)cc1,"inconclusive [inhibitor, partial curve]",
CCN(CC)CC(=O)Nc1ccc2c(c1)N(C(=O)CN(CC)CC)c1ccccc1CC2,"inconclusive [inhibitor, single point]",
O=C(CSc1ncnc2c1cnn2-c1ccc(Cl)cc1)NCc1ccc2c(c1)OCO2,"inconclusive [inhibitor, single point]",
O=C(N/N=C/c1cc([N+](=O)[O-])ccc1O)C1CCCCC1,active: 5.17 µM,
CCOC(=O)C1=C(CN2c3ccccc3CC2C)NC(=O)NC1c1ccccc1 (configuration not stated),"inconclusive [inhibitor, partial curve]",
COc1ccc(N2CCN(C(=O)C(CC(C)C)NS(=O)(=O)c3ccc4nc(C)sc4c3)CC2)cc1 (configuration not stated),active: 11.6 µM,
C[C@@H](/C=C\c1cccc(Oc2ccc(F)cc2)c1)N(O)C(N)=O,"inconclusive [inhibitor, full curve, poor fit]",
CNC(=O)c1cc2c(cn1)[nH]c1ccccc12,"inconclusive [inhibitor, single point]",
CN(C)c1ccc(CNC(=O)C2CCN(S(=O)(=O)c3ccc4c(c3)CCC(=O)N4)CC2)cc1,,inconclusive: -30.6% [inhibitor]
COc1ccc(C)cc1S(=O)(=O)N1CCC2(CC1)OCCN2S(=O)(=O)c1ccccc1,"inconclusive [inhibitor, partial curve]",
CCC(C)C(=O)Nc1nc2ccc(OC)cc2s1 (configuration not stated),"inconclusive [inhibitor, single point]",

SMILES,Potency,"activity change, negative = growth inhibition"
CCOC(=O)C1=C(C)N(CC)C(=S)NC1c1ccccc1OC(F)F (configuration not stated),,inactive: 28%
O=C(Cn1nnc2ccccc2c1=O)NC1CCCCC1,,inactive: 7.32%
CCN(CC)CCCNC(=O)Cn1nc([N+](=O)[O-])c(Cl)c1C,,inactive: -12.4%
CCCC(O)(c1ccc(CC)cc1)C(CN1CCOCC1)c1ccccc1 (configuration not stated),active: 16.4 µM,
CCCCc1ccc(/C(C)=N/Nc2cc(N3CCOCC3)nc(C)n2)cc1,"inconclusive [inhibitor, single point]",
CCCNC(=O)c1cc2c3ccccc3n(C)c2s1,,inactive: -3.72%
COc1ccc(NC(=O)c2cc(C3CCCCN3S(C)(=O)=O)on2)c(C)c1 (configuration not stated),,inactive: -11.2%
CSc1nc2ccc(NS(=O)(=O)c3cccc(Cl)c3Cl)cc2s1,,inactive: -3.03%
COc1ccc(C(=O)c2cc(OC)c(OC)c(OC)c2)cc1OC,active: 4.61 µM,
CC1CCCN(C(=O)COc2ccc(Nc3ccccc3)cc2)C1 (configuration not stated),"inconclusive [inhibitor, single point]",
CCn1nc(NC(=O)c2ccncc2)c2cc3cc(C)ccc3nc21,"inconclusive [inhibitor, single point]",
O=C(CSc1ccccc1)NNC(=O)c1ccccc1O,"inconclusive [inhibitor, single point]",
Cc1nc(S(=O)(=O)c2ccc(Cl)cc2)c(NCc2ccccc2)o1,"inconclusive [inhibitor, single point]",
Cc1ncoc1C(=O)N1CCCC(C(=O)c2ccc3c4c(cccc24)CC3)C1 (configuration not stated),active: 18.4 µM,
CCN(CC)C(=O)c1cccc(-c2csc(C(O)c3cccc(Cl)c3)n2)c1 (configuration not stated),"inconclusive [inhibitor, single point]",
O=c1[nH]c(CN2CCN(C/C=C/c3ccccc3)CC2)nc2ccccc12,"inconclusive [inhibitor, single point]",
CCOC(=O)N1CCN(C(=O)C(C)N(c2ccc(Oc3ccccc3)cc2)S(C)(=O)=O)CC1 (configuration not stated),"inconclusive [inhibitor, single point]",
NC(=S)N=Nc1c(O)n(CCCl)c2ccc(Cl)cc12,"inconclusive [inhibitor, single point]",

# Reference: PubChem BioAssay AID686979 (National Center for Advancing Translational Sciences (NCATS), 2013)
